Results taken from a collection of fitness landscapes (doi:10.1016/j.celrep.2020.107928).
In all, about 81,000 sequences were measured (“one-hybrid fitness for binding parS DNA”: median about -0.17, highest 2% from about 0.51 on). This is one part of the list.

B1: Caulobacter ParB omega fusion; a variant is named by its letters at X, in order, B8GW30 (parent)
chain: MESVVVGEPGMSEGRRGLGRGLSALLGEVDAAPAQAPGEQLGGSREAPIEILQRNPDQPRRTFREEDLEDLSNSIREKGVLQPILVRPSPDTAGEYQIVAGERAWRAAQRAGLKTVPIMVRELDDLAVLEIGIIENVQRADLNVLEEALSYKVLMEKFERTQENIAQTIGKSXSHVANXMRLLXLPDEVQSYLVSGELTAXHARAIAAAADPVALAKQIIEGGLSVRETEALARKAPNLSAGKSKGGRPPRVKDTDTQALESDLSSVLGLDVSIDHRGSTGTLTITYATLEQLDDLCNRLTRGI

Variants of: B1
Assay: one-hybrid fitness for binding parS DNA (scaled: cognate 1, non-cognate 0); higher = stronger binding
Details: with parS DNA site
In short: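 The reporter was HIS3, with the binding site 19 bp from the promoter, in E. coli USO used for bacterial one-hybrid selection of Caulobacter ParB libraries with four specificity codons randomised. Growth was on M9 lacking histidine, with 0.1 mM IPTG and 5 mM 3-AT, for 48 hours at 37°C. Illumina sequencing covered plasmids before and after selection; three replicate libraries were pooled and variants with under 10 reads dropped. A fitness score is the log change in variant-to-wild-type read ratio, rescaled to the cognate and non-cognate references.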

Variant	one-hybrid fitness for binding parS DNA
ICAG	≤ 0.2
NFKP	≤ 0.2
WKTS	≤ 0.2
RNEV	≤ 0.2
QQLN	≤ 0.2
IKRV	≤ 0.2
TADV	≤ 0.2
KLPG	≤ 0.2
AWKV	≤ 0.2
EVST	≤ 0.2
QVMT	≤ 0.2
DSVS	≤ 0.2
RQIC	0.735
DGNT	≤ 0.2
VRWT	≤ 0.2
RQWD	≤ 0.2
EARM	≤ 0.2
RCLF	0.256
LNNC	≤ 0.2
EYDV	≤ 0.2
HLMG	≤ 0.2
MKYK	≤ 0.2
QLHW	≤ 0.2
TYAI	≤ 0.2
TVMG	≤ 0.2
HAAN	≤ 0.2

Variant	one-hybrid fitness for binding parS DNA
FHAC	≤ 0.2
HFCC	≤ 0.2
CWPL	≤ 0.2
AIIT	≤ 0.2
QRAQ	≤ 0.2
QITE	≤ 0.2
VSCS	≤ 0.2
NPPY	≤ 0.2
ELPF	≤ 0.2
QKEM	≤ 0.2
NLNC	≤ 0.2
STNG	≤ 0.2
ESWE	≤ 0.2
WDEG	≤ 0.2
KQEN	≤ 0.2
AVLY	≤ 0.2
AVMG	≤ 0.2
TNIM	≤ 0.2
QTGW	≤ 0.2
DTSK	≤ 0.2
QHQF	≤ 0.2
HMDG	≤ 0.2
WFTS	≤ 0.2
RCHF	0.297
IHVW	≤ 0.2
TGNS	≤ 0.2

Variant	one-hybrid fitness for binding parS DNA
IQLT	≤ 0.2
TLST	≤ 0.2
LHRF	≤ 0.2
EGCS	≤ 0.2
SREP	≤ 0.2
DHRI	≤ 0.2
LHLI	≤ 0.2
PGNA	≤ 0.2
DSRV	≤ 0.2
TRSY	≤ 0.2
YWRY	≤ 0.2
PPVM	≤ 0.2
NTFR	≤ 0.2
GETI	≤ 0.2
PRTY	≤ 0.2
WSKY	≤ 0.2
MAYG	≤ 0.2
ILEG	≤ 0.2
RYPY	≤ 0.2
MWST	≤ 0.2
PRNL	≤ 0.2
YEHT	≤ 0.2
NALT	≤ 0.2
HETC	≤ 0.2
PWES	≤ 0.2
GDCS	≤ 0.2

Variant	one-hybrid fitness for binding parS DNA
PRDC	≤ 0.2
LIDI	≤ 0.2
SAQA	≤ 0.2
PIMS	≤ 0.2
DKAG	≤ 0.2
NYLG	≤ 0.2
EKQI	0.237
LHMN	≤ 0.2
TPTW	≤ 0.2
LVGG	≤ 0.2
YFSA	≤ 0.2
RMAK	≤ 0.2
VCAR	≤ 0.2
TNHT	≤ 0.2
TILF	≤ 0.2
SQYQ	≤ 0.2
CGPF	≤ 0.2
NDSG	≤ 0.2
RRRK	≤ 0.2
WRET	≤ 0.2
CLHH	≤ 0.2
SLCD	≤ 0.2
LVFY	≤ 0.2
RNDI	≤ 0.2
MTRV	≤ 0.2
SKVG	≤ 0.2

Variant	one-hybrid fitness for binding parS DNA
TCRR	≤ 0.2
LPND	≤ 0.2
LSYH	≤ 0.2
GMRG	≤ 0.2
VAQS	0.225
WLNV	≤ 0.2
TTPY	≤ 0.2
CEAS	≤ 0.2
PRGI	≤ 0.2
AHYC	≤ 0.2
MMRR	≤ 0.2
PTAH	≤ 0.2
RFMH	≤ 0.2
KQNV	≤ 0.2
SHFV	≤ 0.2
ATLK	≤ 0.2
SVVK	≤ 0.2
ETLC	≤ 0.2
TAAS	≤ 0.2
THQD	≤ 0.2
WKPS	≤ 0.2
LYFG	≤ 0.2
KLVD	≤ 0.2
HSGI	≤ 0.2
RGIS	0.524
DPKD	≤ 0.2

Variant	one-hybrid fitness for binding parS DNA
DAPV	≤ 0.2
FDLS	≤ 0.2
CNFF	≤ 0.2
IHYV	≤ 0.2
RTVI	≤ 0.2
PPTK	≤ 0.2
QFAR	≤ 0.2
CINV	≤ 0.2
LYSC	≤ 0.2
MPIR	≤ 0.2
LAGI	≤ 0.2
RTRC	0.826
AAVR	≤ 0.2
SGAC	≤ 0.2
KVFY	≤ 0.2
LSYI	≤ 0.2
IPNF	≤ 0.2
PDFC	≤ 0.2
LKLP	≤ 0.2
NIWR	≤ 0.2
VLKW	≤ 0.2
HSWG	≤ 0.2
FKYG	≤ 0.2
